Laboratory results reported in PubChem BioAssay AID588855 (National Center for Advancing Translational Sciences (NCATS), 2011).
About 5,000 (1.2%) of roughly 410,000 compounds were called active. The shares of active, inactive and inconclusive entries below differ from those in the screen. Calls follow the shape of the dose curve; as a rule, active = well fitted inhibition curve with a large enough effect; inconclusive = small, poorly fitted or top-dose-only effect; inactive = no such curve, though single readings can be large or run the other way. Where the call is inconclusive, the potency comes from a doubtful curve fit.

test: qHTS for Inhibitors of TGF-b; details: HepG2 CAGA-GFP TGF-b/SMAD3 reporter, GFP fluorescence, 18 h, TGF-beta stimulated, 500 pg/mL final; series mostly up to 46.1 µM; also: nearly all actives have a fitted effect of over 65% in size
Method in brief: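 Smad-responsive CAGA-GFP expression was quantified in HEPG2 cells exposed to compounds and 500 pg/mL final TGF-beta for 18 h at 37 degrees C; unstimulated wells defined full inhibition.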
Potency is read from the fitted curve at half-maximal effect; tags tell the direction and shape of the fitted curve.

Question: With Cc1ccc2cccc(NC(=O)c3ccc(-c4cc(Cl)ccc4Cl)o3)c2n1 as the compound, how does the Potency read?
Answer: inactive

Question: For Cc1ccc(C(C(=O)NCC2CCCO2)N(C(=O)c2snc(C(N)=O)c2N)c2ccccc2)o1 (stereo unspecified), which Potency is on record?
Answer: inactive

Question: Which Potency does the source give for COc1ccc(NC(=O)CSc2nncc3ccccc23)cc1 here?
Answer: inactive

Question: With O=C(/C=C/c1ccc(OCc2ccccc2)c(OCc2ccccc2)c1)c1cccnc1 as the compound, how does the Potency read?
Answer: inconclusive: 35.5 µM [inhibitor, single point]

Question: Which Potency does the source give for COc1ccc(CC(=O)Nc2nc(-c3ccccc3)c(C(C)=O)s2)cc1OC here?
Answer: inconclusive: 35.5 µM [inhibitor, single point]

Question: With O=C(C[C@H]1C/C=C\C[C@@H](Cc2ccc(F)cc2)C(=O)OC[C@H]2CCCN2C1=O)N[C@@H](CO)Cc1ccccc1 as the compound, how does the Potency read?
Answer: inconclusive: 11.2 µM [inhibitor, partial curve]

Question: With CCOC(=O)C1CCN(C(=O)C2CCN(c3ncnc4c3nc3n4CCCCC3)CC2)CC1 as the compound, how does the Potency read?
Answer: inconclusive: 25.1 µM [inhibitor, single point]

Question: Which Potency does the source give for CCOc1ccc(Cl)cc1S(=O)(=O)n1nnc2ccccc21 here?
Answer: inconclusive: 35.5 µM [inhibitor, partial curve, poor fit]

Question: For Cn1c(NC(=O)C2CCCC2)cc(=O)n(C)c1=O, which Potency is on record?
Answer: inconclusive: 3.98 µM [inhibitor, single point]

Question: With O=C(Nc1ccc(F)cc1)N1CCN(CCc2ccccc2)CC1 as the compound, how does the Potency read?
Answer: inactive

Question: Which Potency does the source give for Cn1c(/C=C/c2ccccc2[N+](=O)[O-])nc2ccccc2c1=O here?
Answer: inactive

Question: For CCCN1C(=O)/C(=C/C=C2\N(CC)c3ccccc3C2(C)C)SC1=S, which Potency is on record?
Answer: inactive

Question: For COc1ccc(CCn2c3c(c(=O)[nH]c2=O)C(NC(=O)c2ccccc2)(C(F)(F)F)C(=O)N3)cc1OC (stereo unspecified), which Potency is on record?
Answer: inconclusive: 5.62 µM [inhibitor, single point]

Question: For O=C(CCS(=O)(=O)c1ccc2c(c1)NC(=O)CO2)Nc1cccc(C(F)(F)F)c1, which Potency is on record?
Answer: inconclusive: 17.8 µM [inhibitor, single point]

Question: With COc1ccc(O)c(-c2cc(-c3cccc(Br)c3)n[nH]2)c1 as the compound, how does the Potency read?
Answer: inconclusive: 3.98 µM [inhibitor, single point]

Question: With O=C(C[n+]1cccc2ccccc21)c1ccc([N+](=O)[O-])cc1 as the compound, how does the Potency read?
Answer: inactive

Question: With CC1(C(=O)Nc2cccc3ncccc23)CCN1C(=O)Cc1ccc(-c2ccccc2)cc1 (stereo unspecified) as the compound, how does the Potency read?
Answer: inactive

Question: With COc1ccc(Cl)cc1CC1(C)C(=O)Nc2ccc(S(=O)(=O)NC3CCCCC3)cc21 (stereo unspecified) as the compound, how does the Potency read?
Answer: inconclusive: 35.5 µM [inhibitor, single point]

Question: For CC(C)C[C@H]1CN=C(N(C)C)N1CCc1cccc(F)c1, which Potency is on record?
Answer: inactive

Question: Which Potency does the source give for C=CCN(Cc1ccc(Cl)s1)C(=O)c1cc(S(=O)(=O)N2CCOCC2)ccc1F here?
Answer: inconclusive: 12.6 µM [inhibitor, single point]

Question: With O=C(CCN1C(=O)COc2ccccc21)NCCN1CCN(c2cccc(Cl)c2)CC1 as the compound, how does the Potency read?
Answer: inconclusive: 11.2 µM [inhibitor, partial curve, poor fit]

Question: For COc1cc(OC)c(-c2c3cc(O)c(=O)cc-3oc3cc(O)c(O)cc23)cc1OC, which Potency is on record?
Answer: inconclusive: 35.5 µM [inhibitor, single point]

Question: For Cc1ccc(NC(=O)C(C)Oc2ccccc2)cc1S(=O)(=O)N1CCCCCC1 (stereo unspecified), which Potency is on record?
Answer: inconclusive: 14.1 µM [inhibitor, single point]

Question: With CCCc1[nH]nc2c1C(C1CCCCC1)C(C#N)=C(N)O2 (stereo unspecified) as the compound, how does the Potency read?
Answer: inconclusive: 20 µM [inhibitor, single point]

Question: Which Potency does the source give for COC(=O)c1ccc(Oc2cc(C)nc(-n3nc(C)cc3C)n2)cc1 here?
Answer: inconclusive: 17.8 µM [inhibitor, single point]

Question: For CCc1cccc2c1NC(=O)C21N2CCCC2C(C(=O)c2ccc3ccccc3c2)C12C(=O)Nc1ccccc12 (stereo unspecified), which Potency is on record?
Answer: inconclusive: 22.4 µM [inhibitor, single point]

Question: With Cc1ccc(NP(=O)(Nc2ccc(C)cc2)Nc2ccc(C)cc2)cc1 as the compound, how does the Potency read?
Answer: inconclusive: 35.5 µM [inhibitor, single point]

Question: With Nc1cccc(-c2cc3ccccc3oc2=O)c1 as the compound, how does the Potency read?
Answer: inactive

Question: With N/C(Cc1ccc(Cl)cc1Cl)=N\OC(=O)c1cccs1 as the compound, how does the Potency read?
Answer: inactive

Question: With CCc1nc2ccccc2c(C(=O)OCC(=O)NCc2ccc3c(c2)OCO3)c1C as the compound, how does the Potency read?
Answer: inconclusive: 35.5 µM [inhibitor, single point]

Question: For COc1ccc(CNC(=O)CCCc2cn(C)c3ccccc23)c(OC)c1, which Potency is on record?
Answer: inconclusive: 0.126 µM [inhibitor, full curve, poor fit]

Question: Which Potency does the source give for Cc1nc(CNC(=O)CC2C(=O)NCCN2Cc2ccc(F)cc2)cs1 (stereo unspecified) here?
Answer: inconclusive: 35.5 µM [inhibitor, single point]

Question: For Cc1c(CCC(=O)N2CCC(C(=O)O)CC2)c(=O)oc2cc3oc4c(c3cc12)CCCC4, which Potency is on record?
Answer: inactive

Question: With CCOC(=O)c1ccc(NC(=O)Cc2ccc(-n3c(CC)nc4cccnc43)cc2)cc1 as the compound, how does the Potency read?
Answer: inconclusive: 25.1 µM [inhibitor, single point]

Question: For COc1ccc(CNc2ncnc3c2c(-c2ccccc2)cn3-c2ccccc2)cc1, which Potency is on record?
Answer: inactive

Question: With Nc1cc(N)nc(SCC(=O)NC2CCCCCCC2)n1 as the compound, how does the Potency read?
Answer: inactive

Question: For Cc1cccc2cc(CN(CCCO)C(=O)Nc3ccc(Cl)cc3)c(=O)[nH]c12, which Potency is on record?
Answer: inconclusive: 17.8 µM [inhibitor, single point]

Question: Which Potency does the source give for Cc1ccc(-c2nc(SCc3ccc(Br)cc3)n3[nH]c(=O)cc3n2)cc1 here?
Answer: inconclusive: 0.112 µM [inhibitor, full curve, poor fit]

Question: For O=C(NCc1csc(-c2cccs2)n1)c1ccccc1, which Potency is on record?
Answer: inconclusive: 35.5 µM [inhibitor, single point]

Question: Which Potency does the source give for Cc1nnc(SCC(=O)NCc2ccccc2F)c2nn(-c3ccc(Cl)cc3)c(C)c12 here?
Answer: inconclusive: 12.6 µM [inhibitor, single point]

Question: For Cc1ccc(Nc2nc(N/N=C/c3c[nH]c4ccccc34)nc(N3CCOCC3)n2)cc1, which Potency is on record?
Answer: inconclusive: 35.5 µM [inhibitor, single point]

Question: For Cc1cc(NC(=O)C2CCCCC2)n(-c2nc3ccccc3[nH]2)n1, which Potency is on record?
Answer: inconclusive: 35.5 µM [inhibitor, single point]

Question: Which Potency does the source give for CCCN1C(=O)C(O)(CC(=O)c2cccc(OC)c2)c2ccccc21 (stereo unspecified) here?
Answer: inactive

Question: With COc1ccc(C(=O)NNC(=S)NC(=O)c2ccco2)cc1 as the compound, how does the Potency read?
Answer: inactive

Question: With COc1ccc(NC(=O)C2=C(C)Nc3nc(SCc4ccccc4)nn3C2c2cc(OC)ccc2OC)cc1 (stereo unspecified) as the compound, how does the Potency read?
Answer: inconclusive: 0.794 µM [inhibitor, full curve, poor fit]

Question: Which Potency does the source give for Cc1sc2nc(C3CCCCC3)nc(SCC(=O)N3CC(=O)Nc4ccccc43)c2c1C here?
Answer: inactive

Question: Which Potency does the source give for O=C1C=CC(=O)N1c1ccc(N2CCCCC2)cc1 here?
Answer: inconclusive: 35.5 µM [inhibitor, single point]

Question: For Cc1cccc(N2C(=O)CCSC23C(=O)N(Cc2ccc(F)cc2)c2ccccc23)c1 (stereo unspecified), which Potency is on record?
Answer: inconclusive: 15.8 µM [inhibitor, partial curve, poor fit]

Question: For CC1(c2ccccc2)CC(C)(C)N2C(=O)C3(C(C#N)=C(N)Oc4cc(O)ccc43)c3cccc1c32 (stereo unspecified), which Potency is on record?
Answer: inconclusive: 25.1 µM [inhibitor, single point]

Question: With Cc1ccc(-c2c(C(=O)NCCc3ccc(Cl)cc3)oc(=O)c3ccccc23)cc1 as the compound, how does the Potency read?
Answer: active: 11.2 µM

Question: For CC[C@H](C)[C@H](NC(=O)OCc1ccccc1)C(=O)OCC(=O)N1CCN(c2ccc(F)cc2)CC1, which Potency is on record?
Answer: inconclusive: 35.5 µM [inhibitor, single point]

Question: For Cc1ccc2nc(C3CCCCC3)c(CC(C)(C)C)n2c1, which Potency is on record?
Answer: inconclusive: 22.4 µM [inhibitor, single point]

Question: With O=C(c1ccc2c(Cl)c3c(nc2c1)CCCC3)N1CCN(c2cccc(Cl)c2)CC1 as the compound, how does the Potency read?
Answer: inconclusive: 5.62 µM [inhibitor, single point]

Question: Which Potency does the source give for C[C@H](CO)N1C[C@H](C)[C@H](CN(C)S(=O)(=O)c2cccc(F)c2)OCc2ccccc2-c2c(n(C)c3ccccc23)C1=O here?
Answer: inconclusive: 17.8 µM [inhibitor, single point]

Question: Which Potency does the source give for Nc1nonc1-c1nc2ccccc2n1CC(=O)N1CCN(c2ccc(F)cc2)CC1 here?
Answer: inactive

Question: With CC(C)Cn1c(N)c(C(=O)COC(=O)c2ccccc2C(=O)c2ccccc2)c(=O)n(C)c1=O as the compound, how does the Potency read?
Answer: inactive

Question: Which Potency does the source give for CN(C)c1ccc(C(CNS(=O)(=O)c2ccc(Br)cc2)N2CCOCC2)cc1 (stereo unspecified) here?
Answer: inconclusive: 35.5 µM [inhibitor, single point]

Question: Which Potency does the source give for FC(F)Oc1ccc(NC(=S)NC2CCCCCCC2)cc1 here?
Answer: inconclusive: 17.8 µM [inhibitor, single point]

Question: With Cc1ccc(C)c(S(=O)(=O)c2nnn3c2nc(NCc2ccc4c(c2)OCO4)c2sccc23)c1 as the compound, how does the Potency read?
Answer: inactive

Question: For CN(C)c1ccc(NC(=O)Cn2c(SCc3ccccc3F)nc3cccnc32)cc1, which Potency is on record?
Answer: inactive

Question: With Cc1c(Br)c([N+](=O)[O-])nn1C(C)C(=O)NCC1CCCO1 (stereo unspecified) as the compound, how does the Potency read?
Answer: inactive

Question: With O=C(COC(=O)Cc1ccc(S(=O)(=O)N2CCOCC2)s1)Nc1ccccc1Cl as the compound, how does the Potency read?
Answer: inconclusive: 0.112 µM [inhibitor, full curve, poor fit]

Question: With COC(=O)c1cc(S(=O)(=O)NC2CCCCC2)cn1C as the compound, how does the Potency read?
Answer: inactive

Question: With CC1=C(C(=O)N(C(C)C)C(C)C)CC(CC(=O)NCc2cccs2)C(=O)N1Cc1ccc(C(C)(C)C)cc1 (stereo unspecified) as the compound, how does the Potency read?
Answer: inconclusive: 10 µM [inhibitor, partial curve, poor fit]

Question: Which Potency does the source give for C(=C\c1ccccc1)/C=N/Nc1nc(N2CCCCC2)nc(N2CCCCC2)n1 here?
Answer: inconclusive: 2.82 µM [inhibitor, single point]

Question: With CN(C(=S)Nc1ccc(F)cc1)C(c1ccccc1)c1ccccc1 as the compound, how does the Potency read?
Answer: inconclusive: 20 µM [inhibitor, partial curve, poor fit]
